Measurements: PMC4336329 (PLoS ONE, 2015)
Out of some 310,000 compounds screened, about 14,000 (4.5%) showed an effect of 50% or more. The effect is printed as a negative number. The list shows a part of the results.

These molecules were tested against human ether-à-go-go-related gene (hERG) potassium channel (human, UniProt Q12809) (assay: primary screen, population patch clamp on CHO cells stably expressing hERG).
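Further: peak tail current of the secondary pulse compared with the same well before compound.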

human ether-à-go-go-related gene (hERG) potassium channel, sequence (Q12809 whole entry, looked up): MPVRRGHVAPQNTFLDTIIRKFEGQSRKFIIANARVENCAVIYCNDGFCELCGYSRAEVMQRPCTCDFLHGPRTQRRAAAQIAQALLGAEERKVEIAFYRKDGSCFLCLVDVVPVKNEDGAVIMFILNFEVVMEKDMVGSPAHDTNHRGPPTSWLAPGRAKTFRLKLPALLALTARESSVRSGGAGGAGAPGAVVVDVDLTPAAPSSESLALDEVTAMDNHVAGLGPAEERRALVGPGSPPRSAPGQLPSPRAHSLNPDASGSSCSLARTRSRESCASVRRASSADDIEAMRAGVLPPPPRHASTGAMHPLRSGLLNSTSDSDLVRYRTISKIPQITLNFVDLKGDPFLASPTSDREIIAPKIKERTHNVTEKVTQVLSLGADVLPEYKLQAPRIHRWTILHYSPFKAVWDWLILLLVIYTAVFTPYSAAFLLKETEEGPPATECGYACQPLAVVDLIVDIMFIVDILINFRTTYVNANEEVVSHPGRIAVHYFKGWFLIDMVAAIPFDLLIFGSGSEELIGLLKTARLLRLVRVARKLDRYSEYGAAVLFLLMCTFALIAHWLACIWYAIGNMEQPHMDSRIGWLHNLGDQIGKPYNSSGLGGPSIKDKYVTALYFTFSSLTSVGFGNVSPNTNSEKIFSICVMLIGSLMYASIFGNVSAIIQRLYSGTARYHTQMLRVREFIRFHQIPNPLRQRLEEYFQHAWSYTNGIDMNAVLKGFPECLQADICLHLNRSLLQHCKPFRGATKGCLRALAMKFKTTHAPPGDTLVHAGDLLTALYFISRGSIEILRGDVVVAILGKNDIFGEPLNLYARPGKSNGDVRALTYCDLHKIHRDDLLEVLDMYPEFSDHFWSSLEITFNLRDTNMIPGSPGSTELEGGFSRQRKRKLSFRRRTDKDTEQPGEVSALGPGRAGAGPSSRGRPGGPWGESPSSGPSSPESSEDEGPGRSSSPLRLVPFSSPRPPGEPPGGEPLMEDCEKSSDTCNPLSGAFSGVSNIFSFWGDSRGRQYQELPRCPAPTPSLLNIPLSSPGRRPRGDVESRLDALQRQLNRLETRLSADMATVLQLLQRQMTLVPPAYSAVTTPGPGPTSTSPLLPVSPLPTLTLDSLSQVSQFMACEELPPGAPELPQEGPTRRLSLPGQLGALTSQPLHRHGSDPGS

SMILES	hERG current change (%, negative = inhibition) at 10uM
O=C1Nc2ccccc2/C1=C/c1cccnc1	8.64%
C[C@@]12CCC3[C@@](CCC4[C@@]3(C)CCC[C@@]4(C)C(=O)NCc3ccccc3)(CC1=O)C2 (some centres unmarked)	-5.33%
COc1cccc(OC)c1C(=O)Nc1ccc(C(=O)NCc2ccccc2)cc1	6.45%
COc1ccc(C(=O)Nc2ccc3c(c2)n(C)c(=O)n3C)cc1OC	11.7%
CC(C)NC(=O)C1CCN(C(=O)N(C)C)CC1	5.89%
O=C(CCCCCN1C(=O)[C@@H]2Cc3ccccc3CN2C1=O)Nc1cccc(F)c1	-67.9%
Cc1nn(Cc2ccc(Cl)cc2)c(C)c1NC(=O)c1ccc([N+](=O)[O-])cc1	-72.6%
Cc1cc(C)nc(NC(=O)c2ccc3c(c2)OCO3)c1	17.5%
Cc1ccc(OCCCN(C)C)c(Br)c1	-20.6%
CCOc1cc(C(=O)NC(=S)Nc2ccc(Cl)c(C(=O)O)c2)cc(OCC)c1OCC	4.81%
O=C(NCc1cnc2ccccn12)C1CCC(=O)N(Cc2ccccc2F)C1 (centres unmarked)	23.4%
Cc1ccccc1NS(=O)(=O)c1ccc(C(=O)OCC(=O)NCC(C)C)cc1	9.28%
O=C(NCC1CCN(Cc2ccccc2Cl)CC1)Nc1cccc(Cl)c1	-72%
Cc1cc(C)c2c(=O)n(-c3ccccc3)[nH]c2n1	10.1%
CC1CCCN(C(=O)CSc2nnc(-c3ccc(S(=O)(=O)N4CCOCC4)cc3)n2C)C1 (centres unmarked)	2.33%
O=C(Nc1c(Cl)cc(Cl)cc1C(=O)NCC1CCCO1)c1ccco1 (centres unmarked)	-1.1%
CCN1CCN(C(c2cccs2)C(C)NC(=S)Nc2cccc(C)c2C)CC1 (centres unmarked)	-72.9%
Cc1ccc(C(C)C)cc1S(=O)(=O)Nc1ccncc1	13.4%
CCN(C(=O)CSc1nc2ccc(OC)cc2[nH]1)C1CCS(=O)(=O)C1 (centres unmarked)	1.6%

SMILES	hERG current change (%, negative = inhibition) at 10uM
Cc1ccc(-n2c(C)c([N+](=O)[O-])c3ccc(O)cc32)cc1	15.7%
COC(CNC(=O)CCc1c(C)nc2c(c(C)nn2-c2ccc(C)cc2)c1C)OC	6.59%
O=C(c1cc(COc2ccc(F)cc2F)on1)N1CCCC(c2ccccc2)C1 (centres unmarked)	3.73%
C=CCN1CC2(c3ccccc3)CN(CC=C)CC(c3ccccc3)(C1)C2=O	-19.3%
NC(=O)COC(=O)c1ccc(Cl)c(S(=O)(=O)N(Cc2ccccc2)c2ccc(Cl)cc2)c1	5.48%
CC(C)(C)C1(O)CC(C(F)(F)F)=NN1C(=O)CCc1ccccc1 (centres unmarked)	-48.4%
Cc1cc(C)cc(N2CC(O)=C(c3nc4ccccc4c(=O)[nH]3)C2=N)c1	18.9%
Cc1cc(C)c2oc(=O)cc(CN3CCOCC3)c2c1	4.16%
CC(NS(C)(=O)=O)C(c1cccs1)N1CCN(C)CC1 (centres unmarked)	8.91%
CC1=C(C(=O)Nc2ccccc2C(F)(F)F)C(c2sccc2C)NC(=S)N1 (centres unmarked)	31.4%
O=C(Nc1ccc(S(=O)(=O)N2CCCC2)cc1)c1cncc(Br)c1	-12%
CSc1ccc(/C=C/c2ccc3cccc(O)c3n2)cc1	10.6%
CC(C)n1nccc1N(Cc1ccc(Br)cc1)S(=O)(=O)c1ccccc1	-15.7%
N=C1C(c2ccc(Br)cc2)=C(O)C2CCc3ccccc3N12 (centres unmarked)	-30.5%
C=Cc1ccc(CN2CCCN(Cc3ccc(F)cc3)S2(=O)=O)cc1	-1.13%
CCc1cc2c(CN3CCN(Cc4ccccc4)CC3)cc(=O)oc2cc1O	-35.5%
COc1ccc(C2/C(=C(/O)c3ccccc3)C(=O)C(=O)N2C)cc1 (centres unmarked)	7.3%
O=C(ON=C1CCN(S(=O)(=O)c2ccccc2)CC1)c1ccc(Cl)cc1	11.1%
CCOC(=O)C1CCN(C(=O)C2CCCN(c3ncnc4c3nc3n4CCCCC3)C2)CC1 (centres unmarked)	-34.1%

SMILES	hERG current change (%, negative = inhibition) at 10uM
O=C(CSc1ccc2nnc(-c3ccncc3)n2n1)Nc1ccc2c(c1)OCCO2	10.9%
COc1ccc(-c2cc3c(=O)n(CC(=O)NCc4ccc(Cl)cc4)ncn3n2)cc1	20.5%
Cc1ccc(CN2C(=O)c3ccccc3C2C(=O)NCc2cccnc2)cc1 (centres unmarked)	-11.3%
CCOc1cc(C(=O)NC2CC(C)(C)NC(C)(C)C2)cc(OCC)c1OCC	20%
C/C(Nc1ccc(Cl)cc1)=C(/C#N)C(N)=O	17%
COc1ccccc1OCc1ccc(C(=O)Nc2ccccc2F)cc1	-0.597%
Cc1cccc2cc(CN(Cc3nnnn3C3CCCC3)C3CCCCC3)c(=O)[nH]c12	-19.7%
O=C(O)c1cccc(NS(=O)(=O)c2cccc3nsnc23)c1	9.41%
NC(=O)C1CCN(C(=O)CCSc2ccc(Cl)cc2)CC1	-0.503%
O=[N+]([O-])c1ccccc1/C=C/CN1CCC(O)CC1	18.6%
COc1ccc(NC(=O)CC2C(=O)N(c3ccc(OC)cc3)C(=O)N2C(C)C)cc1 (centres unmarked)	-5.34%
COc1cccc(C(c2c(NC(=O)c3ccco3)sc(C)c2C)N2CCOCC2)c1 (centres unmarked)	-5.67%
CN(C)S(=O)(=O)N(CCN1CCOCC1)Cc1ccccc1F	11.4%
COc1ccc(N2CCN(Cc3nc4ccsc4c(=O)[nH]3)CC2)cc1	2.6%
Cc1cccc(C(=O)NC2CCN(S(=O)(=O)c3ccc(F)cc3)CC2)c1	22.3%
CC(NC(=O)c1ccccc1)c1nnc(SCC(=O)NC2=NCCS2)n1C (centres unmarked)	16.6%
COc1cccc(OC)c1C(=O)Nc1ccc2c(c1)Cc1ccccc1-2	15.5%
CC(C)On1c(SC(C)C)nc2ccccc2c1=O	-5.41%
